This note sets out measurements from PubChem BioAssay AID1347073 (National Center for Advancing Translational Sciences (NCATS), 2019).

Hit rate of the full screen: of about 45,000 compounds, about 200 (0.44%) were called active. Inconclusive results (about 7%) are left out. Calls come from the whole dose curve; as a rule, active = well fitted activation curve with a large enough effect; inconclusive = small, poorly fitted or top-dose-only effect; inactive = no such curve, though single readings can be large or run the other way. The list shows a part of the results.

The assay in a line: qHTS of TDP-43 Inhibitors: NCGC Sytravon Library Screen. Note: 0% is about no effect; nearly all actives have a fitted effect of over 55% in size. The conditions noted are these: yeast TDP-43 toxicity rescue, BacTiter-Glo growth, 24 h; series mostly up to 46.1 µM; growth rescue (activation): at the top concentration. The method, boiled down:
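TDP-43-expressing yeast, pregrown in raffinose, seeded at OD600 0.02 in galactose medium with compound for 24 hr at 30 deg C. Growth read by BacTiter-Glo luminescence, so rescue of toxicity appears as activation.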
Take `Cc1n[nH]c(C)c1CCC(=O)N/N=C/c1c(C)[nH]c2ccccc12`: the “growth rescue (activation)” value is inactive: 17.5%. Turning to `Cc1nn(C)cc1C(C(=O)NC1CCCCC1)N(C(=O)c1cnccn1)c1ccc(Oc2ccccc2)cc1` (configuration not stated), the “growth rescue (activation)” value was inactive: 10.2%.

Turning to `Cc1ccc(S(=O)(=O)N2CCOCC2)cc1C(=O)N1CCC(Cc2ccccc2)CC1`, the “growth rescue (activation)” value is inactive: 16.8%. For the molecule `Cn1cccc1/C=N/NC(=O)C12CC3CC(CC(C3)C1)C2`, the “growth rescue (activation)” value was inactive: 16.3%.

Consider `Cc1cccc(C)c1NC(=S)NCCc1ccccn1`, for which the “growth rescue (activation)” value is inactive: -8.06%. Turning to `COc1ccc(N2C(=O)CC(NNc3nc4ccccc4s3)C2=O)cc1` (configuration not stated), the “growth rescue (activation)” value was inactive: 15.9%.

As to `COc1cc(C(=O)c2c(C)c(CCC#N)n3ccccc23)cc(OC)c1OC`, the “growth rescue (activation)” value is inactive: -6.7%. To `CC(C)N(Cc1ccccc1)C(=O)/C=C/c1ccccc1[N+](=O)[O-]` belongs inactive: 3.75%; to `CC1CCc2cc(F)ccc2N1C(=O)CSc1nnc2c3cc(F)ccc3n(C)c2n1` (configuration not stated), inactive: 3.96%; to `O=[N+]([O-])c1ccc(NC(=S)NCC(c2cccnc2)N2CCOCC2)cc1` (configuration not stated), inactive: 2.85%. Turning to `CNC(=O)c1ccc(N(Cc2ccccc2)S(C)(=O)=O)cc1`, the “growth rescue (activation)” value was inactive: 15.5%. Turning to `O=C(NC1CCCC1)C1CCN(C(=O)Nc2cccc(Cl)c2)CC1`, the “growth rescue (activation)” value was inactive: 5.7%.

Consider `C=CCOc1ccc(-c2nc3c(c(=O)[nH]c(=O)n3Cc3ccccc3)n2CCCOC)cc1`, for which the “growth rescue (activation)” value is inactive: 15.7%. To `CCOC(=O)c1c(N)sn(-c2ccccc2)c1=S` belongs inactive: 25.6%; to `COc1ccc(-n2ncc3c(=O)n(CC(=O)N(C(C)C)C(C)C)cnc32)cc1`, inactive: 3.17%. Take `Cc1cc2cc(C)c3nnc(SCc4ccccn4)n3c2cc1C`: the “growth rescue (activation)” value was inactive: 15.9%. For the molecule `CCCCCCCCS(=O)CCC(=O)O` (configuration not stated), the “growth rescue (activation)” value was inactive: 0.258%. On to `NS(=O)(=O)c1cccc(NC(=O)CSc2nc3ccccc3c(=O)n2Cc2ccco2)c1`, for which the “growth rescue (activation)” value is inactive: 16%.

For `CCOC(=O)C1C(=O)NC(C)C1c1ccccc1` (configuration not stated), the “growth rescue (activation)” value is inactive: 24.1%. Turning to `COCCNC(=O)/C(C#N)=C/C(C)=C/c1ccccc1`, the “growth rescue (activation)” value is inactive: 11.4%. The value for `Cc1cc(NC(=O)CSc2nnnn2-c2ccc(F)cc2)no1` was inactive: -7.02%; that for `COc1ccccc1NS(=O)(=O)c1cc(C(=O)N2CCCCCC2)ccc1C` was inactive: -14%.

With `CCCCN(C=O)c1c(CC)nc2ccc(C(=O)N3CCN(c4ccccc4)CC3)cn12`, the “growth rescue (activation)” value was inactive: 6.81%. Take `Nc1nc(-c2cc3ccccc3o2)cs1`: the “growth rescue (activation)” value was inactive: 15%. The value for `CCOC(=O)c1[nH]c2ccc(OC)cc2c1NC(=O)c1ccccc1C(=O)O` was inactive: 10.7%; that for `Cc1ccc(NC(=O)CN2CCCC2)c2c1CC(C)(C)O2` was inactive: 15.9%; that for `COc1cc(/C=C/CN2CCC(C(=O)NC(c3ccc(F)cc3)c3ccc4ccccc4n3)CC2)ccc1OC(C)=O` (configuration not stated) was inactive: -0.459%. For the molecule `COc1ccc(-c2ccc(CCC(=O)O)n2CC(=O)Nc2cccc(OC)c2)cc1`, the “growth rescue (activation)” value was inactive: -6.62%. The value for `Cc1noc(C)c1-c1ccc(C(=O)NCC2CC2)c2occc12` was inactive: 14.2%. With `CC1(C)C(=O)OC(/C=C\c2cccc([N+](=O)[O-])c2)C(C)(C)C1=O` (configuration not stated), the “growth rescue (activation)” value is inactive: 10.6%. As for `COc1ccc(NC(=O)COC(=O)C2C3CC4OC(=O)C2C4C3)cc1` (configuration not stated), the “growth rescue (activation)” value was inactive: 4.73%.

Take `Cn1c(CN2CCN(CCO)CC2)c(C#N)c2ccccc21`: the “growth rescue (activation)” value was inactive: 1.6%. On to `NCC(c1ccc(Cl)cc1Cl)c1c[nH]c2ccccc12` (configuration not stated), for which the “growth rescue (activation)” value is inactive: 1.49%. To `CCCOc1ccc(N2CC(C(=O)NC3=NCCS3)CC2=O)cc1` (configuration not stated) belongs inactive: 8.62%; to `CN(Cc1ccccc1)C(=O)c1ccc2c(c1)S(=O)(=O)N=C1CCCCCN12`, inactive: 8.74%; to `CC(C)C(NC(=O)c1c(F)cccc1F)C(=O)NC1CC(C)(C)NC(C)(C)C1` (configuration not stated), inactive: 0.793%. As for `COc1ccc(Cc2nc3ccc(C(=O)NCCn4cccn4)cc3o2)cc1`, the “growth rescue (activation)” value is inactive: 13.6%.

With `COc1ccc(NC(=S)Nc2cccc(Cl)c2Cl)cc1OC`, the “growth rescue (activation)” value was inactive: 2.76%. As to `CCN1CCc2c(sc(NC(=O)c3ccc(S(=O)(=O)N4CCOCC4)cc3)c2C(=O)OC)C1`, the “growth rescue (activation)” value was inactive: -16%. `COCCCC1CCN(C(=O)C2CCC(=O)N(CC3CCCCC3)C2)CC1` (configuration not stated): the “growth rescue (activation)” value is inactive: 9.87%. For the molecule `Nc1nc(NCCOCCO)nc(NCc2ccccc2)c1[N+](=O)[O-]`, the “growth rescue (activation)” value was inactive: 0.247%. To `O=C(Nc1ccc(Cl)cc1)N1CCC(c2ccccc2)C1` (configuration not stated) belongs inactive: 19.4%; to `O=C(Nc1ccc(Br)cc1)c1cccc(N2C(=O)C3C4C=CC(C4)C3C2=O)c1` (configuration not stated), inactive: 24.8%. In the case of `Cc1cccc(C)c1NC(=O)C1CCN(C(=O)c2cccs2)CC1`, the “growth rescue (activation)” value was inactive: 14.6%. In the case of `CCc1ccc(OCC(=O)OCC(=O)NC2CCCC(C)C2C)cc1` (configuration not stated), the “growth rescue (activation)” value is inactive: -13.1%.

In the case of `Cc1cc(N2C(=O)C(O)=C(C(=O)c3ccc(C)o3)C2c2ccc(OCc3ccccc3)cc2)no1` (configuration not stated), the “growth rescue (activation)” value is inactive: -12.8%. `CC(C)NC(=O)c1ccc(COc2ccc(C(C)(C)C)cc2)o1`: the “growth rescue (activation)” value is inactive: -10.9%. With `CCOc1ccccc1NC(=O)c1c(NCc2sccc2C)sc2c1CCC(C)C2` (configuration not stated), the “growth rescue (activation)” value was inactive: 11.5%.

For `O=C(CN1CCN(S(=O)(=O)N2CCCCC2)CC1)Nc1cc(Cl)ccc1Cl`, the “growth rescue (activation)” value is inactive: 10.4%. The value for `O=C1c2cccc3cccc(c23)C(=O)N1/N=C/c1ccc(O)cc1O` was inactive: 9.36%; that for `Cc1cccc(C(=O)Nc2ccc(C(=O)N/N=C/c3cccc(C)n3)cc2)c1` was inactive: 9.82%; that for `Cc1cc(Br)cc2c1NC(=O)C2(O)CC(=O)c1ccco1` (configuration not stated) was inactive: -6.48%. Turning to `CC(=O)Nc1ccc(-n2c(C)ccc2-c2ccccc2)cc1`, the “growth rescue (activation)” value is inactive: 5.14%. `Cc1onc(-c2ccccc2)c1C(=O)Nc1ccc(S(=O)(=O)N2CCOCC2)cc1`: the “growth rescue (activation)” value was inactive: -21.4%. For `CCN(C(=O)COc1cccnc1[N+](=O)[O-])C1CCS(=O)(=O)C1` (configuration not stated), the “growth rescue (activation)” value is inactive: 8.14%. Turning to `COCCNC(=O)c1cc(-c2ccncc2)nc2ccc(S(=O)(=O)N3CCOCC3)cc12`, the “growth rescue (activation)” value is inactive: -3.41%. On to `CCCCC(=O)Nc1ccccc1CC`, for which the “growth rescue (activation)” value is inactive: 1.89%. Turning to `O=c1c2ccccc2nc(COc2ccccc2)n1/N=C/c1ccco1`, the “growth rescue (activation)” value was inactive: 12.1%. As to `COc1ccc(/C(N)=N/OC(=O)Cc2ccccc2)cc1`, the “growth rescue (activation)” value is inactive: 29.3%.

On to `O=C(N/C(=C\c1ccc(Cl)cc1)C(=O)N1CCOCC1)c1ccco1`, for which the “growth rescue (activation)” value is inactive: -27.7%. Consider `COc1ccc(/C=C/C(=O)Nc2sc(Cc3ccccc3)c(C)c2C(N)=O)cc1`, for which the “growth rescue (activation)” value was inactive: -9.88%. With `O=C(CN(C(=O)CNC(=O)c1cccs1)c1ccc(F)cc1)NC1CCCC1`, the “growth rescue (activation)” value is inactive: 3.26%. Regarding `O=C(COC(=O)Cc1ccc(S(=O)(=O)N2CCOCC2)s1)Nc1ccc(OC(F)F)cc1`, the “growth rescue (activation)” value is inactive: 8.98%. As for `O=C(COC(=O)[C@@H]1CC(O)CN1S(=O)(=O)c1ccccc1[N+](=O)[O-])c1ccccc1` (some centres not stated), the “growth rescue (activation)” value was inactive: -5.92%.

Consider `COc1cc(OC)cc(C(=O)N2CCC(N3CCN(c4ccccc4OC)CC3)CC2)c1`, for which the “growth rescue (activation)” value was inactive: -33.6%. For `CCOc1ccc(N(CC(=O)NC2CCCCC2)S(=O)(=O)c2ccc(C)cc2)cc1`, the “growth rescue (activation)” value was inactive: 5.29%. With `O=C(NC(=S)N1CCN(c2ccc([N+](=O)[O-])cc2)CC1)c1ccccc1`, the “growth rescue (activation)” value is inactive: 0.468%.
